Results on 89 compounds are retold here after publication PMC4336329 (PLoS ONE, 2015).

Screen size: about 310,000 compounds; about 2,200 (0.71%) showed an effect of 50% or more. Effects have a minus sign here. The list shows a part of the results.

This test deals with human ether-à-go-go-related gene (hERG) potassium channel (human, UniProt Q12809). Put plainly: primary screen, population patch clamp on CHO cells stably expressing hERG.
Chain of human ether-à-go-go-related gene (hERG) potassium channel (Q12809 whole entry, looked up): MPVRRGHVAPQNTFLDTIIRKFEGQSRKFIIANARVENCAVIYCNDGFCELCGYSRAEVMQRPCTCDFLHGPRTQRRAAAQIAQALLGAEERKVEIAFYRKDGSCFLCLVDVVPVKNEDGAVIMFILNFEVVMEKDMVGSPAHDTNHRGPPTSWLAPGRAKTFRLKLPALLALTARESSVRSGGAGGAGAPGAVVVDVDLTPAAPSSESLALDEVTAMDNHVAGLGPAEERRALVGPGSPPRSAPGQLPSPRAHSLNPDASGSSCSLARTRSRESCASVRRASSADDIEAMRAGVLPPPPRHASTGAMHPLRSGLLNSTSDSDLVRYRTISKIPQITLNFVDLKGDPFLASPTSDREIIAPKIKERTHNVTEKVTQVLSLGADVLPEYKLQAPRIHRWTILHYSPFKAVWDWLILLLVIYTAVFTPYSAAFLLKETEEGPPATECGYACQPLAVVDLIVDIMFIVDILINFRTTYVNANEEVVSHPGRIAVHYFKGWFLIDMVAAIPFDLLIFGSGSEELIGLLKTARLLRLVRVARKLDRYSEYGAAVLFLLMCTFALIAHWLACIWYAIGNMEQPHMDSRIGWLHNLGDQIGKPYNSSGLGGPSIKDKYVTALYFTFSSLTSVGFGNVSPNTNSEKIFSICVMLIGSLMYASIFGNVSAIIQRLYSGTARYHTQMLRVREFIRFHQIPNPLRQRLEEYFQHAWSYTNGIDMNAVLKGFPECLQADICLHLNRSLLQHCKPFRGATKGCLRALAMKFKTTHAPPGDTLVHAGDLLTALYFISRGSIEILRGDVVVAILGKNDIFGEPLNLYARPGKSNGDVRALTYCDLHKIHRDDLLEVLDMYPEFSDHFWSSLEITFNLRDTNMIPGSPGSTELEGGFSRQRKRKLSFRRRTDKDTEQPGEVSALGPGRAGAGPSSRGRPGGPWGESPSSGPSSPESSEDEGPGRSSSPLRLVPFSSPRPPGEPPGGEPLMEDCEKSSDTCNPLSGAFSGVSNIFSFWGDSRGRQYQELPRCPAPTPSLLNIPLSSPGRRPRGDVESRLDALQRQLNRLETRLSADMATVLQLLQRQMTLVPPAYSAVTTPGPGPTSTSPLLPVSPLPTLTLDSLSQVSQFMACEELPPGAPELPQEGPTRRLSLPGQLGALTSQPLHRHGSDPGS
Consider `COC(=O)c1ccc(OCC(=O)c2ccccc2OC)cc1`, for which the “hERG current change (%, negative = inhibition) at 1uM” value amounted to 1.86%. To `CCN1CCCC1CNCC(=O)Nc1ccc(OC(F)(F)F)cc1.O=C(O)C(=O)O` (centres unmarked) belongs -40.4%; to `COc1ccc(S(=O)(=O)N(CCc2ccccc2)CC(=O)NC(C)C)cc1`, -0.239%; to `O=C(OCC#CCSc1nnc(-c2ccncc2)o1)c1cccs1`, -14.8%. To `C=CCN1C(=O)c2ccc(C(=O)OCC(=O)N3CCN(c4ccccc4)CC3)cc2C1=O` belongs 5.74%; to `CCOC(=O)c1cc(S(=O)(=O)Nc2ccc(F)cc2F)cn1C`, 15.2%. To `CCN(C(=O)CSc1cc(C)c2ccc(OC)cc2n1)C1CCS(=O)(=O)C1` (centres unmarked) belongs 8.63%; to `COc1ccc(S(=O)(=O)N2CCC(C(=O)Oc3cccc(C)c3)CC2)cc1OC`, 20.9%.

For the compound `Cc1ccc(C(=O)OCC(=O)N(CC(C)C)c2c(N)n(Cc3ccccc3)c(=O)[nH]c2=O)cc1[N+](=O)[O-]`, the “hERG current change (%, negative = inhibition) at 1uM” value was 8.6%. To `COc1cc(NC(=O)c2c(F)cccc2F)c(Cl)cc1Cl` belongs 10.1%; to `COc1ccc(N(CC(=O)NCc2ccc(Cl)cc2)S(=O)(=O)c2c(C)n[nH]c2C)cc1`, 1.42%; to `CC(=O)N1CCN(C(=O)c2c(-c3ccccc3)noc2C)CC1`, -1.98%.

As to `O=S(=O)(c1ccc2c(c1)OCCO2)N1CCN(c2nc3ccccc3s2)CC1`, the “hERG current change (%, negative = inhibition) at 1uM” value turned out to be 12.6%. Turning to `CCCCn1c(SCC(=O)O)nc2ccccc21`, the “hERG current change (%, negative = inhibition) at 1uM” value is listed as 15.2%. The result for `CCCCCCC(=O)Nc1cc2c(C)cc(=O)oc2cc1C` reads -6.52%; that for `OCC1(Cc2ccccc2Cl)CCN(C/C=C/c2ccccc2)CC1`, -27.8%; that for `COc1ccccc1C(=O)Nc1ccc2oc(-c3ccc(F)cc3)nc2c1`, 13.7%. The result for `O=C(CCc1nnc(CCCCc2ccccc2)o1)NC(c1cccnc1)C(F)(F)F` (centres unmarked) reads 10.1%.

Consider `CC(C)(C)OC(=O)CNC(=O)c1[nH]cnc1C(=O)N[C@@H](CCCCNC(=O)OC(C)(C)C)C(=O)OC(C)(C)C`, for which the “hERG current change (%, negative = inhibition) at 1uM” value was 10.9%. The result for `O=[N+]([O-])c1ccc(C23CC4CC(CC(O)(C4)C2)C3)cc1` reads -1.55%; that for `CCCCOP(=O)(c1ccc(N(C)C)cc1)C(O)c1cccnc1` (centres unmarked), 3.47%; that for `CCOc1ccccc1NC(=O)NNC(=O)CCc1ccc(OC)cc1`, 11.3%.

In the case of `CCCS(=O)(=O)c1c(S(=O)(=O)CCC)c2ccc(C(N)=O)cn2c1C(=O)OC`, the “hERG current change (%, negative = inhibition) at 1uM” value came to 6.12%.

Regarding `Cc1ccc(NC(=O)CSc2nnc(-c3cnccn3)n2Cc2ccco2)cc1`, the “hERG current change (%, negative = inhibition) at 1uM” value came to 1.89%.

For `COc1cc(/C=N/NC(=O)c2ccncc2)ccc1OCC(=O)Nc1ccccc1`, the “hERG current change (%, negative = inhibition) at 1uM” value is given as -5.29%. Take `COc1ccc(S(=O)(=O)n2nc(C)cc2C)c(C)c1C`: the “hERG current change (%, negative = inhibition) at 1uM” value is -2.35%. In the case of `CCOC(=O)c1cc(C#N)c(SCC(N)=O)[nH]c1=O`, the “hERG current change (%, negative = inhibition) at 1uM” value amounted to 9.34%.

For `Cc1cc(C)n2nc(SCC(=O)Nc3ccccc3)nc2n1`, the “hERG current change (%, negative = inhibition) at 1uM” value is 6.75%. The result for `CCOc1cccc(-c2cc(=O)[nH][nH]2)c1` reads 1.42%; that for `COc1cccc(OC)c1C(=O)NCCSC1CCCCC1`, 6.36%; that for `Cc1ccc(CNC(=O)c2ccc(N3CCc4ccccc43)c([N+](=O)[O-])c2)cc1`, 9.23%. The result for `Cc1ccc(N2C(=O)N(CC(=O)N3CCOCC3)C(=O)C2C)cc1` (centres unmarked) reads 0.183%; that for `O=C(O)CCCC(=O)NCCCc1ccccc1`, 1.9%; that for `O=C(NCCc1c[nH]c2ccccc12)C(=O)NCC1OCCCN1S(=O)(=O)c1ccc(F)cc1` (centres unmarked), 15.5%. To `O=C(O)CNS(=O)(=O)c1ccc2c(c1)CCCC2` belongs 12.6%; to `NS(=O)(=O)c1cccc(NC(=O)COC(=O)CN2C(=O)c3ccccc3C2=O)c1`, 3.65%; to `CCc1noc(C)c1C(=O)Nc1nc(-c2cccs2)cs1`, 8.51%.

As to `Cc1ccc(C(=O)Nc2sc(C)c(-c3ccccc3)c2C(N)=O)cc1[N+](=O)[O-]`, the “hERG current change (%, negative = inhibition) at 1uM” value is 14.7%. To `CSc1cccc(NS(=O)(=O)c2cccc3nsnc23)c1` belongs 8.67%; to `COCCNC(=S)N/N=C(\C)c1ccc(Cl)c(Cl)c1`, 13.3%; to `Cc1ccc(CNC(=O)C2CCCN2S(=O)(=O)c2ccc(Cl)cc2)cc1` (centres unmarked), -3.52%. The result for `COCCNC(=O)C1(C(F)(F)F)CC(CCCO)CCCO1` (centres unmarked) reads 13.4%; that for `Cc1ccc(S(=O)(=O)NCCCNC(=O)N2CCOCC2)cc1`, 6.02%; that for `O=C(O)c1cccc(NC(=S)NC(NC(=O)c2ccccc2[N+](=O)[O-])C(Cl)(Cl)Cl)c1` (centres unmarked), 7.88%.

With `CC(C)CCC(CCNCc1ccccn1)c1ccc(Cl)cc1` (centres unmarked), the “hERG current change (%, negative = inhibition) at 1uM” value is listed as -40.7%.

Turning to `O=C(CSc1nc2ccccc2s1)Nc1ccc(N2CCOCC2)c(Cl)c1`, the “hERG current change (%, negative = inhibition) at 1uM” value amounted to 19.5%. To `Cc1nc2c([nH]c3ccc(Br)cc32)s1` belongs 10.4%; to `CC(C)(C)N(Cc1ccccc1)C(=O)COC(=O)CNS(=O)(=O)c1ccc2ccccc2c1`, 12.8%; to `NC(=S)N/N=C\c1ccc(-c2cccc(Cl)c2Cl)o1`, 8.81%. The result for `O=C(NCc1nnc(SCC(=O)N2CCCCCC2)o1)c1ccc(F)cc1` reads 16.3%; that for `CC1=C(C)/C(=N/OC(=O)c2cccc([N+](=O)[O-])c2)C=CC1=O`, 9.77%; that for `CCCCCCNS(=O)(=O)c1ccc(NC(=O)C2CCCO2)cc1` (centres unmarked), 8.57%. To `COc1cc(OC)cc(C(=O)N[C@H](C(=O)OCC(=O)NC(=O)NC(C)(C)C)C(C)C)c1` belongs 4.51%; to `C[C@@H](NC(=O)CN1C(=O)c2ccccc2S1(=O)=O)c1ccccc1`, 12.9%. Consider `O=c1oc2c(CN3CCOCC3)c(O)ccc2c2c1CCC2`, for which the “hERG current change (%, negative = inhibition) at 1uM” value is 10.3%.

Consider `Cc1cc(C)c(S(=O)(=O)Nc2ccc(O)cc2)cc1C`, for which the “hERG current change (%, negative = inhibition) at 1uM” value was -5.28%. The result for `Cc1cc(C)c2c(CN3CCOCC3)cc(=O)oc2c1C` reads 5.52%; that for `c1ccc(NC2=Nc3ccccc3CS2)cc1`, 21%; that for `CCCCN(C)C(=O)C1CCN(Cc2ccccn2)CC1.O=C(O)C(=O)O`, 6.35%. To `CC1C(=O)N2CCCc3cc(S(=O)(=O)Nc4ccccc4F)cc1c32` (centres unmarked) belongs 6.14%. Take `CCC(CC)NC(=O)c1cccc(Br)c1`: the “hERG current change (%, negative = inhibition) at 1uM” value was 3.15%. To `CCOC(=O)c1nc(C)n(-c2ccc(Cl)cc2Cl)n1` belongs 13.2%; to `Cc1ccc(C(=O)N2CCN(C(=O)CN3CCCC3)C2)cc1`, 7.96%; to `COC1CCN(C(=O)C2CCC(=O)N(CCc3cccc(F)c3)C2)CC1` (centres unmarked), 14.3%. On to `COc1ccc(-c2cn3c(C)c(C(=O)Nc4ccncc4)sc3n2)cc1`, for which the “hERG current change (%, negative = inhibition) at 1uM” value was 2.25%.

Take `O=C(CC1C(=O)NC2CCCCC2N1C(=O)c1ccc(F)cc1)Nc1ccccc1` (centres unmarked): the “hERG current change (%, negative = inhibition) at 1uM” value came out at 14.3%. The result for `CCCC(CCC)=NNC(=O)CN(Cc1ccccc1)S(=O)(=O)c1ccccc1` reads 13.6%.

In the case of `CC(C)[C@H](NC(=O)c1nn(Cc2ccccc2)c(=O)c2ccccc12)C(=O)O`, the “hERG current change (%, negative = inhibition) at 1uM” value is recorded as 5.2%. To `Cc1ccc(N2C(=O)C3C4C=CC(CC4)C3C2=O)c([N+](=O)[O-])c1` (centres unmarked) belongs 10.6%; to `COc1ccc(CNS(=O)(=O)c2ccc(C)cc2)cc1`, 10.4%. On to `Cc1ccc(S(=O)(=O)NCCc2nnc3ccc(SCc4cccnc4)nn23)cc1`, for which the “hERG current change (%, negative = inhibition) at 1uM” value is 9.2%.

For `O=C1NC(=O)c2c(NC(=O)C3CCCO3)cccc21` (centres unmarked), the “hERG current change (%, negative = inhibition) at 1uM” value came to 4.27%.

Consider `O=C(c1cc2ccccc2[nH]1)N1CCOCC1`, for which the “hERG current change (%, negative = inhibition) at 1uM” value is 11.2%. To `CC1(C)CC(=O)C(C=NCCC2=CCCCC2)=C(O)C1` belongs 22.6%; to `COc1ccc2nc(SCC(=O)Nc3ccccc3C#N)[nH]c2c1`, 1.06%. On to `N#CC(C(=O)C12CC3CC(CC(C3)C1)C2)c1nc2ccccc2[nH]1` (centres unmarked), for which the “hERG current change (%, negative = inhibition) at 1uM” value is recorded as 13.8%. To `Cc1cccc(N2CCN(C(=O)C3CCN(c4ncnc5c4nc4n5CCCCC4)CC3)CC2)c1C` belongs 10.2%; to `CCCCCNC(=O)c1ccc2c(=O)n(CCOC)c(=O)[nH]c2c1`, 13.1%; to `CCOC(=O)c1c(S(=O)(=O)NCC(=O)Nc2ccc(F)cc2)c(C)n(C)c1C`, 15.8%. To `O=C(CSc1ccc(-c2ccccn2)nn1)Nc1ccc(F)cc1F` belongs 8.3%. The result for `O=C(NC(=S)Nc1ccccc1C(=O)O)c1ccc2ccccc2c1` reads 3.33%.

With `CN1C(=S)SC(/[N+]([O-])=C\c2ccccc2)C1(C)C` (centres unmarked), the “hERG current change (%, negative = inhibition) at 1uM” value is 8.38%.

Regarding `CCOc1ccc(-c2nc(S(=O)(=O)c3ccccc3)c(N3CCC(C(N)=O)CC3)o2)cc1`, the “hERG current change (%, negative = inhibition) at 1uM” value turned out to be 9.14%. To `[O-]/[N+](=C\c1ccc(F)cc1)c1ccccc1` belongs 13%; to `Cc1cc(S(=O)(=O)N2CCOCC2)ccc1OCC(=O)N1CCC(C)CC1`, 12.8%; to `COc1ccc(C(=O)/C=C/c2ccc(-c3ccccc3)cc2)cc1CSCC(=O)O`, 100%. The result for `O=C(Nc1ccccc1N1CCOCC1)c1ccc(Br)o1` reads 7.65%; that for `COc1ccc(NC(=O)COc2ccccc2Cc2ccccc2)cc1S(N)(=O)=O`, 16.3%; that for `CCOC(=O)C(C(=O)N(C)Cc1ccccc1)C1CCCCC1` (centres unmarked), 13.1%.
